According to paper PMC4336329 (PLoS ONE, 2015):
Hit rate of the full screen: of about 310,000 compounds, about 14,000 (4.5%) showed an effect of 50% or more. The effect is printed as a negative number. Some of the results follow.

Each molecule was assayed against human ether-à-go-go-related gene (hERG) potassium channel (human, UniProt Q12809) (assay: primary screen, population patch clamp on CHO cells stably expressing hERG).
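Also: peak tail current of the secondary pulse compared with the same well before compound.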

Chain of human ether-à-go-go-related gene (hERG) potassium channel (Q12809 whole entry, looked up): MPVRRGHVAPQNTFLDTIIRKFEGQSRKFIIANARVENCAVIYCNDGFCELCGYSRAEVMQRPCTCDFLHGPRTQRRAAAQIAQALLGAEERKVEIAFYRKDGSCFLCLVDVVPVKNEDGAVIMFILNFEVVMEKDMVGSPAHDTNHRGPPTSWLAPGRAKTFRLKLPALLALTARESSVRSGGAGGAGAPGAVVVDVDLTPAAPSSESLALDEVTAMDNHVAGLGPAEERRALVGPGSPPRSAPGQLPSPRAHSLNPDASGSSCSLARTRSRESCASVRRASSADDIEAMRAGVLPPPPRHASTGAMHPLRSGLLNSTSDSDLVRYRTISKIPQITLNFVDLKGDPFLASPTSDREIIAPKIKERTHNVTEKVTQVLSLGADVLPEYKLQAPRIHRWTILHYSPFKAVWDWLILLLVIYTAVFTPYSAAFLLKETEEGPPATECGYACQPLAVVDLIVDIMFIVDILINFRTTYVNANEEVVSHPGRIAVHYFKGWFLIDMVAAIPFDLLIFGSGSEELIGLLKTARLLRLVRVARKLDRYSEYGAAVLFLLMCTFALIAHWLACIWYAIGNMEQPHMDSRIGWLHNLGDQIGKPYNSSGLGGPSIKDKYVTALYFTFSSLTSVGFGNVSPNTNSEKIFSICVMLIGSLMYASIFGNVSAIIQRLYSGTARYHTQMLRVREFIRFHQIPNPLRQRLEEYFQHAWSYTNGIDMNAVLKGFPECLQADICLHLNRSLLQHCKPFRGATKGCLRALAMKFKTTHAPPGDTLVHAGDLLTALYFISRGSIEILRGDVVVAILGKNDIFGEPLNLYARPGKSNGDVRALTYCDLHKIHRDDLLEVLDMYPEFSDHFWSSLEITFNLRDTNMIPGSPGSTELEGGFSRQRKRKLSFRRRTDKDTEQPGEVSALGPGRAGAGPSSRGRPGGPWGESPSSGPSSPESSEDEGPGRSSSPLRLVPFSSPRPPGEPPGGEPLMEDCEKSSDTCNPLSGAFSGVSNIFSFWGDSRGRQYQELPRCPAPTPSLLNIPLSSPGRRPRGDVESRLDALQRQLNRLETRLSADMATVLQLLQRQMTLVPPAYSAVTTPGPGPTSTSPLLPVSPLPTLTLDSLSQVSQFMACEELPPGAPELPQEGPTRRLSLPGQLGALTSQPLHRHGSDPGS

Row | SMILES | hERG current change (%, negative = inhibition) at 10uM
1 | CCOC(=O)Cn1cnc2c(nnn2-c2ccccc2)c1=O | -19.1%
2 | Cc1cc(N(C)Cc2ccccc2)nc(-c2ccccc2)n1 | -24.1%
3 | Cc1ccc(O)c(-c2cc(-c3cccc(F)c3)n[nH]2)c1 | 23.6%
4 | CN(Cc1ccc(OCC(O)CN(C)Cc2ccccc2)cc1)Cc1nccn1C (stereo not drawn) | -4.14%
5 | Fc1ccc(-c2nnc3sc(C4COc5ccccc5O4)nn23)cc1 (stereo not drawn) | -38.7%
6 | Cc1[nH]n(C(N)=S)c(=O)c1N=Nc1ccccc1C(F)(F)F | 8.71%
7 | O=c1cc(Nc2ccc3c(c2)OCO3)[nH]c(=O)n1-c1ccc(Br)cc1 | 8.13%
8 | CC(=O)Nc1ccc(C(=O)OCc2ccc(Br)cc2)cc1 | -4.69%
9 | Cc1nnn(-c2nonc2N)c1C(=O)NNC(=O)c1ccc(Cl)c(Cl)c1 | -6.51%
10 | CCOC(=O)c1ccc(NC(=O)N2CCN(S(C)(=O)=O)CC2)cc1 | 9.85%
11 | COc1ccc(CNC(=O)CCOc2ccc(C(C)(C)C)cc2)cc1 | 8.47%
12 | Cc1cc(C)nc(SCC(=O)Nc2ncc(C(F)(F)F)cc2Cl)n1 | 2.47%
13 | O=C(COC(=O)c1ccco1)NCc1cccs1 | 12.4%
14 | Cc1c(NC(NC(=O)CF)C(Cl)(Cl)Cl)c(=O)n(-c2ccccc2)n1C (stereo not drawn) | 4.94%
15 | CCN(CC)S(=O)(=O)c1ccc(C(=O)N2CCN(c3ncccn3)CC2)cc1 | 0.428%
16 | CC1CCCC(C)N1C(=O)c1cc(-c2ccc3c(c2)OCO3)on1 (stereo not drawn) | 5.12%
17 | CC(=O)Nc1ccc(S(=O)(=O)Nc2cccc(N(C)S(C)(=O)=O)c2)cc1 | 8.45%
18 | CN(C(=O)c1ccc(OC2CCN(CCc3ccccc3)CC2)cc1)C1CCCCC1 | -63.5%
19 | COC(=O)C1=C(c2c(C)noc2C)C[C@@H]2CC[C@H]1N2C(=O)NCc1ccc(F)cc1 | -10.5%
20 | CN(C)C(=O)COc1ncnc2sc(-c3ccccc3)cc12 | 12.3%
21 | CC(=O)c1ccc(-c2ccc(C(=O)N3CCN(c4ccc(F)cc4)CC3)o2)cc1 | -16.7%
22 | CCCCN1C(=O)C(=O)NC[C@@H]1CCCCN | 10.5%
23 | Cc1cc(C)n2cc(CSc3nc4cc(Cl)ccc4o3)nc2n1 | -68.1%

Row | SMILES | hERG current change (%, negative = inhibition) at 10uM
24 | Cc1cccc(C(=O)OCc2cc3ccccc3[nH]c2=O)c1 | 3.65%
25 | Nc1nonc1C(=O)OCC(=O)N1CCOCC1 | 9.79%
26 | O=C(CSc1ccc2nnc(-c3ccncc3)n2n1)Nc1ccc2c(c1)OCO2 | 7.8%
27 | CCOCCCNC(=O)C1CCC(CNS(=O)(=O)c2ccc(F)cc2)CC1 (stereo not drawn) | -21.8%
28 | O=[N+]([O-])c1cc(S(=O)(=O)Nc2ccc(Cl)cc2)ccc1N/N=C/c1ccncc1 | 21.2%
29 | C#CCOc1c(Cl)cc(/C=N/NC(N)=S)cc1OCC | -1%
30 | O=C(O)C1(c2ccccc2)CCN(S(=O)(=O)c2cccs2)CC1 | 5.95%
31 | COc1ccc(C(=O)Nc2cc(OC)nc(OC)n2)cc1 | 4.42%
32 | C=CCOc1c(CNc2cccc(C(=O)O)c2)cccc1OCC | -4.78%
33 | O=C(NCC(c1ccco1)N1CCc2ccccc2C1)C(=O)Nc1ccc(F)cc1F (stereo not drawn) | -0.136%
34 | CCN1CCN(c2c(Cl)cccc2NC(=O)c2cccs2)CC1 | -73.8%
35 | CCCN(Cc1ccccc1)C(=O)Nc1ccc2c(c1)nnn2C | -2.15%
36 | Cc1ccc(S(=O)(=O)Nc2ccc3c4c(cccc24)CC3)c(C)c1 | 6.73%
37 | CCOc1ccc(NS(=O)(=O)c2cc(NC(=O)CCS(=O)(=O)c3ccc(C)cc3)ccc2OC)cc1 | 14.9%
38 | CCOC(=O)C1C(=O)N(C)C2(C)CC1c1cc(OC)ccc1O2 (stereo not drawn) | 13.6%
39 | CCOc1ccc(N=c2oc3cc(O)ccc3cc2C(=O)NCC2CCCO2)cc1 (stereo not drawn) | 1.76%
40 | Cc1ccc(NC(=S)NC(NC(=O)c2ccccc2C)C(Cl)(Cl)Cl)c(C)c1 (stereo not drawn) | 22.8%
41 | CCOC(=O)c1c(NC(=O)CCC(=O)O)sc2c1CCCCC2 | -5.59%
42 | CCNC(=S)NNC(=O)c1cc(CC(C)C)nc2ccccc12 | 15%
43 | COc1ccc(CSc2nnnn2C)cc1[N+](=O)[O-] | -10.1%
44 | CCCC(c1nnnn1CC1CCCO1)N1CCN(c2ccccc2)CC1.Cl (stereo not drawn) | -4.74%
45 | C/C(=N\NC(=O)c1ccc(Cl)c(Cl)c1)c1cccc(NC(=O)C(C)C)c1 | 1.91%
